Some of these densities may be calculated back from excess volumes.
Test: xn = mol fraction of the nth substance listed
Settings: 100 kPa

Q: What does the source list for CCCCCC[N+](CC)(CC)CC.O=S(=O)([N-]S(=O)(=O)C(F)(F)F)C(F)(F)F + CC(C)O?
A: mass density (293.15 K, x2 = 0): 1293.6 kg/m3; mass density (293.15 K, x2 = 0.2045): 1266.8 kg/m3; mass density (293.15 K, x2 = 0.3101): 1248.5 kg/m3; mass density (293.15 K, x2 = 0.4056): 1228 kg/m3; mass density (293.15 K, x2 = 0.4987): 1203.1 kg/m3; mass density (293.15 K, x2 = 0.5916): 1171.5 kg/m3; mass density (293.15 K, x2 = 0.7088): 1117.2 kg/m3; mass density (293.15 K, x2 = 0.8015): 1055.4 kg/m3; mass density (293.15 K, x2 = 0.9193): 931.5 kg/m3; mass density (298.15 K, x2 = 0): 1289.4 kg/m3; mass density (298.15 K, x2 = 0.096): 1277.9 kg/m3; mass density (298.15 K, x2 = 0.4056): 1223.8 kg/m3; mass density (298.15 K, x2 = 0.5916): 1167.1 kg/m3; mass density (298.15 K, x2 = 0.7088): 1112.8 kg/m3; mass density (298.15 K, x2 = 0.8015): 1051 kg/m3; mass density (298.15 K, x2 = 0.9193): 927.1 kg/m3; mass density (303.15 K, x2 = 0): 1285.2 kg/m3; mass density (303.15 K, x2 = 0.096): 1273.7 kg/m3; mass density (303.15 K, x2 = 0.2045): 1258.4 kg/m3; mass density (303.15 K, x2 = 0.4056): 1219.5 kg/m3; mass density (303.15 K, x2 = 0.4987): 1194.5 kg/m3; mass density (303.15 K, x2 = 0.5916): 1162.6 kg/m3; mass density (303.15 K, x2 = 0.7088): 1108.3 kg/m3; mass density (303.15 K, x2 = 0.8015): 1046.5 kg/m3; mass density (303.15 K, x2 = 0.9193): 922.7 kg/m3; mass density (308.15 K, x2 = 0): 1281 kg/m3; mass density (308.15 K, x2 = 0.096): 1269.5 kg/m3; mass density (308.15 K, x2 = 0.2045): 1254.2 kg/m3; mass density (308.15 K, x2 = 0.3101): 1235.8 kg/m3; mass density (308.15 K, x2 = 0.7088): 1103.8 kg/m3; mass density (313.15 K, x2 = 0): 1276.9 kg/m3; mass density (313.15 K, x2 = 0.2045): 1250 kg/m3; mass density (313.15 K, x2 = 0.3101): 1231.5 kg/m3; mass density (313.15 K, x2 = 0.4056): 1211 kg/m3; mass density (313.15 K, x2 = 0.4987): 1185.9 kg/m3; mass density (313.15 K, x2 = 0.7088): 1099.4 kg/m3; mass density (313.15 K, x2 = 0.8015): 1037.5 kg/m3; mass density (313.15 K, x2 = 0.9193): 913.8 kg/m3

Q: With CCCCCC[n+]1ccn(C)c1.O=S(=O)([O-])C(F)(F)F + CC(C)O as the molecule, how does the mass density (293.15 K, x2 = 0) read?
A: 1243.6 kg/m3

Q: And the mass density (293.15 K, x2 = 0.1282)?
A: 1224.8 kg/m3

Q: What about the mass density (293.15 K, x2 = 0.2454) of the same molecule?
A: 1204 kg/m3

Q: And the mass density (293.15 K, x2 = 0.3506)?
A: 1181.4 kg/m3

Q: And the mass density (293.15 K, x2 = 0.469)?
A: 1149.8 kg/m3

Q: And the mass density (293.15 K, x2 = 0.5728)?
A: 1114.8 kg/m3

Q: What about the mass density (293.15 K, x2 = 0.6564) of the same molecule?
A: 1079.6 kg/m3

Q: And the mass density (293.15 K, x2 = 0.7574)?
A: 1025.2 kg/m3

Q: And the mass density (293.15 K, x2 = 0.8422)?
A: 964.6 kg/m3

Q: And the mass density (298.15 K, x2 = 0)?
A: 1239.7 kg/m3

Q: What about the mass density (298.15 K, x2 = 0.3506) of the same molecule?
A: 1177.6 kg/m3

Q: And the mass density (298.15 K, x2 = 0.5728)?
A: 1110.7 kg/m3

Q: What about the mass density (298.15 K, x2 = 0.6564) of the same molecule?
A: 1075.5 kg/m3

Q: And the mass density (298.15 K, x2 = 0.7574)?
A: 1021.1 kg/m3

Q: What about the mass density (298.15 K, x2 = 0.8422) of the same molecule?
A: 960.6 kg/m3

Q: What about the mass density (298.15 K, x2 = 0.9231) of the same molecule?
A: 883.1 kg/m3

Q: What about the mass density (303.15 K, x2 = 0) of the same molecule?
A: 1235.7 kg/m3

Q: What about the mass density (303.15 K, x2 = 0.1282) of the same molecule?
A: 1217 kg/m3

Q: And the mass density (303.15 K, x2 = 0.2454)?
A: 1196.3 kg/m3

Q: What about the mass density (303.15 K, x2 = 0.469) of the same molecule?
A: 1141.8 kg/m3

Q: What about the mass density (303.15 K, x2 = 0.5728) of the same molecule?
A: 1106.7 kg/m3

Q: And the mass density (303.15 K, x2 = 0.6564)?
A: 1071.6 kg/m3

Q: What about the mass density (303.15 K, x2 = 0.7574) of the same molecule?
A: 1017.1 kg/m3

Q: And the mass density (303.15 K, x2 = 0.8422)?
A: 956.7 kg/m3

Q: And the mass density (303.15 K, x2 = 0.9231)?
A: 879 kg/m3

Q: And the mass density (308.15 K, x2 = 0)?
A: 1231.9 kg/m3

Q: What about the mass density (308.15 K, x2 = 0.1282) of the same molecule?
A: 1213.2 kg/m3

Q: And the mass density (308.15 K, x2 = 0.2454)?
A: 1192.5 kg/m3

Q: And the mass density (308.15 K, x2 = 0.3506)?
A: 1169.7 kg/m3

Q: And the mass density (308.15 K, x2 = 0.469)?
A: 1137.9 kg/m3

Q: And the mass density (308.15 K, x2 = 0.5728)?
A: 1102.8 kg/m3

Q: And the mass density (308.15 K, x2 = 0.6564)?
A: 1067.5 kg/m3

Q: What about the mass density (308.15 K, x2 = 0.7574) of the same molecule?
A: 1013 kg/m3

Q: What about the mass density (308.15 K, x2 = 0.8422) of the same molecule?
A: 952.6 kg/m3

Q: And the mass density (308.15 K, x2 = 0.9231)?
A: 874.9 kg/m3

Q: And the mass density (313.15 K, x2 = 0)?
A: 1228.1 kg/m3

Q: What about the mass density (313.15 K, x2 = 0.1282) of the same molecule?
A: 1209.4 kg/m3

Q: And the mass density (313.15 K, x2 = 0.2454)?
A: 1188.6 kg/m3

Q: And the mass density (313.15 K, x2 = 0.3506)?
A: 1165.8 kg/m3

Q: What about the mass density (313.15 K, x2 = 0.469) of the same molecule?
A: 1134 kg/m3

Q: And the mass density (313.15 K, x2 = 0.5728)?
A: 1098.6 kg/m3

Q: What about the mass density (313.15 K, x2 = 0.6564) of the same molecule?
A: 1063.3 kg/m3

Q: What about the mass density (313.15 K, x2 = 0.7574) of the same molecule?
A: 1008.9 kg/m3

Q: What about the mass density (313.15 K, x2 = 0.8422) of the same molecule?
A: 948.4 kg/m3

Q: What does the source list for CC(C)O + CCCCCC[N+](CC)(CC)CC.O=S(=O)([N-]S(=O)(=O)C(F)(F)F)C(F)(F)F?
A: mass density (293.15 K, x1 = 1): 785.3 kg/m3; mass density (313.15 K, x1 = 1): 768 kg/m3

Q: For CC(C)O + CCCCCC[n+]1ccn(C)c1.O=S(=O)([O-])C(F)(F)F, which mass density (293.15 K, x1 = 1) is on record?
A: 785.3 kg/m3

Q: And the mass density (303.15 K, x1 = 1)?
A: 776.8 kg/m3

Q: And the mass density (313.15 K, x1 = 1)?
A: 768 kg/m3
